Measured values as given in paper PMC3541368.
No constants are given. Whether binding was seen depends on the method and setting. Binding seen in cells or lysates may run through a third protein. Some results given as binding are weak or reduced against the parent protein; the word gives no strength.

Amino acid sequences for entries named in this document (tags omitted). A change or cut given only in a name is not applied to a line headed by its entry.
UniProt Q9UBI6: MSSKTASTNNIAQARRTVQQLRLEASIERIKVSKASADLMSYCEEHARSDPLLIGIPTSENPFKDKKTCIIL
UniProt Q02078: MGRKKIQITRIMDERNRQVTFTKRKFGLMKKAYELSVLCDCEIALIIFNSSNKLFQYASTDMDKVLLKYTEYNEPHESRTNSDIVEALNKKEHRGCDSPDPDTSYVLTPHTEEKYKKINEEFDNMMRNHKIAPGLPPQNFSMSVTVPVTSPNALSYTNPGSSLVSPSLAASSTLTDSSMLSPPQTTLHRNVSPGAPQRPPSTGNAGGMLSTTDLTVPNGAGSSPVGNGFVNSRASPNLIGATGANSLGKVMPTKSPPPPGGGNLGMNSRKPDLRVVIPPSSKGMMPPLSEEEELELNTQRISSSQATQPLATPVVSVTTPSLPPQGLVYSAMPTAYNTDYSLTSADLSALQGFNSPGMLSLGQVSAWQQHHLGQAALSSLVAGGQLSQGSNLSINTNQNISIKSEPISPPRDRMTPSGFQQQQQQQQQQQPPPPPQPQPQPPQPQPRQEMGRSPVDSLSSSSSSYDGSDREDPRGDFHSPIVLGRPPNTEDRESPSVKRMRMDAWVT
UniProt P20226: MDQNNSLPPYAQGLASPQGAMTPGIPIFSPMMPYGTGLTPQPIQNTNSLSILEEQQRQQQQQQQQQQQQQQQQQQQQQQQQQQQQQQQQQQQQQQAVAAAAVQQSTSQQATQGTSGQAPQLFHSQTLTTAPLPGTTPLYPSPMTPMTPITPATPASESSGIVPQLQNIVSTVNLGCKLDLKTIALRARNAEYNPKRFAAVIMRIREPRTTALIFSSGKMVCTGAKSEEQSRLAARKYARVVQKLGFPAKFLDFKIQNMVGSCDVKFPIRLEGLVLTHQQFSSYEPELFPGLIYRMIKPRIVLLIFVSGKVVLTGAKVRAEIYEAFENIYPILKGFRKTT
UniProt P42224: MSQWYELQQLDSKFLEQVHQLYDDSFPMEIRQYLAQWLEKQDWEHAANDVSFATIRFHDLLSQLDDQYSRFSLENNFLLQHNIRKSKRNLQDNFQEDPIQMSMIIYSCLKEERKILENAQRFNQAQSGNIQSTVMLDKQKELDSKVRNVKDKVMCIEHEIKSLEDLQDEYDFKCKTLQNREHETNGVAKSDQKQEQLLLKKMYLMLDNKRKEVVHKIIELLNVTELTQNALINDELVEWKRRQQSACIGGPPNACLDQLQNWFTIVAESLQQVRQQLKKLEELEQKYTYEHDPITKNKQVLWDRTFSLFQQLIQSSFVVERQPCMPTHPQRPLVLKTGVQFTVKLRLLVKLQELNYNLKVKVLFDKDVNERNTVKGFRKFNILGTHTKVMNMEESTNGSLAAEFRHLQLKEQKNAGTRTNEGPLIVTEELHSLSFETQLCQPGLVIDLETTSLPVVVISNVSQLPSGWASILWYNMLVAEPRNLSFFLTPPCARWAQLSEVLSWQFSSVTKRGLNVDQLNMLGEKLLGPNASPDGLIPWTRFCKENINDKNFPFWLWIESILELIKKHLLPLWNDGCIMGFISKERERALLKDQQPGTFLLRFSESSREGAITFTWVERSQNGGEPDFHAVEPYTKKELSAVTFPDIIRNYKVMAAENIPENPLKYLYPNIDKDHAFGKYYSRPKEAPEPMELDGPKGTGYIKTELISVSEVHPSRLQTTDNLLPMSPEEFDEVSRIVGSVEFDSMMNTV
UniProt P27361: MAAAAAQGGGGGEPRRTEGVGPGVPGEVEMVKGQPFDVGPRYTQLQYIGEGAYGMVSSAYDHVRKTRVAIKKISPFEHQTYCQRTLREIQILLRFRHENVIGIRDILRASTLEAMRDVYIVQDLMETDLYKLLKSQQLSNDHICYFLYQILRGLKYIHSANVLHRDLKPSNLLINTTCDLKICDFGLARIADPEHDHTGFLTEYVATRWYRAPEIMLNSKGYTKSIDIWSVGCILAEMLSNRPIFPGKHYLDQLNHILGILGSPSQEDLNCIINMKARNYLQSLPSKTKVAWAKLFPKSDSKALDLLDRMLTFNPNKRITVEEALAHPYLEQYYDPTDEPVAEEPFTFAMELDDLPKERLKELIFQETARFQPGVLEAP
UniProt P40763: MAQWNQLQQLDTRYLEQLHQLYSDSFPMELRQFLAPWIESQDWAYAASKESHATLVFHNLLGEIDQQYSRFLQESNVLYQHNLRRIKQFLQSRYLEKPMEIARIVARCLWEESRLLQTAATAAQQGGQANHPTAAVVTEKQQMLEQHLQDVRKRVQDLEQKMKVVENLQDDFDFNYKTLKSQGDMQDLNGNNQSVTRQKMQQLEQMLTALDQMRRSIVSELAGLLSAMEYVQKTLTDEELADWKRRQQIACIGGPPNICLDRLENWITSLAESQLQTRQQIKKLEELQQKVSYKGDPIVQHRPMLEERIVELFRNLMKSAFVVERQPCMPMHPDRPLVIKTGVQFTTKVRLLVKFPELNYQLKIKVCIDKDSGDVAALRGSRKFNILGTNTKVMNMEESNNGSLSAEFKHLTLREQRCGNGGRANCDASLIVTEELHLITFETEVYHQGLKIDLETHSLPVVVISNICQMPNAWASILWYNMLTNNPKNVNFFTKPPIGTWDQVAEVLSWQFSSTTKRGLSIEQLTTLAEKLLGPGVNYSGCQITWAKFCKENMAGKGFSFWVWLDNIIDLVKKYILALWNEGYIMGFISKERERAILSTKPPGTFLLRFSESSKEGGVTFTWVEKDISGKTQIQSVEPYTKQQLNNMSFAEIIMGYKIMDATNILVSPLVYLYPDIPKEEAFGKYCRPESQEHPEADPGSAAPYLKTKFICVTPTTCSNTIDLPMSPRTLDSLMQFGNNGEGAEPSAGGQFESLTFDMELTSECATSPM
UniProt P28482: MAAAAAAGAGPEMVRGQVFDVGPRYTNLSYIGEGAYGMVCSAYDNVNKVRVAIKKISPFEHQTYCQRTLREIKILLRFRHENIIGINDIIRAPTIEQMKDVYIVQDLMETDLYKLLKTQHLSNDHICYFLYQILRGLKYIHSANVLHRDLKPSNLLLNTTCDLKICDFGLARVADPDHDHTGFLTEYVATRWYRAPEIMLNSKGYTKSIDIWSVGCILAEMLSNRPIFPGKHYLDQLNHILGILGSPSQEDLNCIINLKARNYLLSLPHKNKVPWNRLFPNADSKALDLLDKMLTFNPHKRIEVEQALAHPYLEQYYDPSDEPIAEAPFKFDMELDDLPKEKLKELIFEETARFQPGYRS
UniProt Q04206: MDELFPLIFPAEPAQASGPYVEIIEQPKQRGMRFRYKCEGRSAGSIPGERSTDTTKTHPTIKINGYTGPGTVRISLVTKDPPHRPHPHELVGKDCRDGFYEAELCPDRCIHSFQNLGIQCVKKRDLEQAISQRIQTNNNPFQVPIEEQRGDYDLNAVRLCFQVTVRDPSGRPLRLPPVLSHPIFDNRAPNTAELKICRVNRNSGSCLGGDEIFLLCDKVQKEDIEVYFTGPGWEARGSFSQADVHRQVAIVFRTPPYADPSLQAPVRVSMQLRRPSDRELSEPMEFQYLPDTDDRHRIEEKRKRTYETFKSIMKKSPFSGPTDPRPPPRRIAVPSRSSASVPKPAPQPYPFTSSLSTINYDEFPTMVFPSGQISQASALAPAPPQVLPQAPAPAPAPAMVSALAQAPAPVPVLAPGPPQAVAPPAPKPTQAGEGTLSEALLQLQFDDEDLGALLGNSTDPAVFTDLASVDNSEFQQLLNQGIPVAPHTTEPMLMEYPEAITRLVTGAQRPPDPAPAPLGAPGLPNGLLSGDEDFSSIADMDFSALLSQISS
UniProt P43694: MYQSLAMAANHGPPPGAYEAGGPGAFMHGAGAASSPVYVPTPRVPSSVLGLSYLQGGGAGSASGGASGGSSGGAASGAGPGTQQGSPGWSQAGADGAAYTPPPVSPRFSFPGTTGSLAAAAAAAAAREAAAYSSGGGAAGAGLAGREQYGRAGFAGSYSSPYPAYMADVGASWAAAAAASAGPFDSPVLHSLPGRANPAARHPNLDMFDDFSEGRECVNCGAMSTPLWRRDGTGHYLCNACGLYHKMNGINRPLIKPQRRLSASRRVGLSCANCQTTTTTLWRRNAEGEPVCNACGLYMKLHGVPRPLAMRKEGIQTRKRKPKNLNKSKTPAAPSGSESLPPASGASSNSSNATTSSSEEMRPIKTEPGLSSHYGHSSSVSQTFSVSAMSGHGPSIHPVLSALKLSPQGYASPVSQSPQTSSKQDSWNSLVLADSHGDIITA
UniProt O43707: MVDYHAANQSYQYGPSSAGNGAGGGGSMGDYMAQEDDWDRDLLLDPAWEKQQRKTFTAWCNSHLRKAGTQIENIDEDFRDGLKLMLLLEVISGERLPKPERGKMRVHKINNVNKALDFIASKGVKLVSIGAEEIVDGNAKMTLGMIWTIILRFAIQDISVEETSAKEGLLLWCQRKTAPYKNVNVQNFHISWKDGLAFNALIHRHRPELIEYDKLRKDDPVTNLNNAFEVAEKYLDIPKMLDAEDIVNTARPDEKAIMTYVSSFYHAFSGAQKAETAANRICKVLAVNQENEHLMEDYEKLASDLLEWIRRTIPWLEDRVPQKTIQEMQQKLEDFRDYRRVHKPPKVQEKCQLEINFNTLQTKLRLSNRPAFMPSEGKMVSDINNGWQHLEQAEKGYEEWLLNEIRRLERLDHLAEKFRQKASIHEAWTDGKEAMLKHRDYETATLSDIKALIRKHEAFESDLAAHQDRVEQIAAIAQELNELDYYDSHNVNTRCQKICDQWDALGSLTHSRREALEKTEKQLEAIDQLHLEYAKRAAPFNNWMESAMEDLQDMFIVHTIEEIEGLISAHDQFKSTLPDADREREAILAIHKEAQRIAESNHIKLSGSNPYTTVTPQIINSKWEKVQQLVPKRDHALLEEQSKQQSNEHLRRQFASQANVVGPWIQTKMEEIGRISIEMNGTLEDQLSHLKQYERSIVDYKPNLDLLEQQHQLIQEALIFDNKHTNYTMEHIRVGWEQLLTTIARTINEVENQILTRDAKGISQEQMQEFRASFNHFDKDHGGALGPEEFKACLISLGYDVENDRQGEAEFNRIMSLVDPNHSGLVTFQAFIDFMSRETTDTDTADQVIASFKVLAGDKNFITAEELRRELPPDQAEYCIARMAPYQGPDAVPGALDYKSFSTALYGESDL
UniProt Q9UQL6: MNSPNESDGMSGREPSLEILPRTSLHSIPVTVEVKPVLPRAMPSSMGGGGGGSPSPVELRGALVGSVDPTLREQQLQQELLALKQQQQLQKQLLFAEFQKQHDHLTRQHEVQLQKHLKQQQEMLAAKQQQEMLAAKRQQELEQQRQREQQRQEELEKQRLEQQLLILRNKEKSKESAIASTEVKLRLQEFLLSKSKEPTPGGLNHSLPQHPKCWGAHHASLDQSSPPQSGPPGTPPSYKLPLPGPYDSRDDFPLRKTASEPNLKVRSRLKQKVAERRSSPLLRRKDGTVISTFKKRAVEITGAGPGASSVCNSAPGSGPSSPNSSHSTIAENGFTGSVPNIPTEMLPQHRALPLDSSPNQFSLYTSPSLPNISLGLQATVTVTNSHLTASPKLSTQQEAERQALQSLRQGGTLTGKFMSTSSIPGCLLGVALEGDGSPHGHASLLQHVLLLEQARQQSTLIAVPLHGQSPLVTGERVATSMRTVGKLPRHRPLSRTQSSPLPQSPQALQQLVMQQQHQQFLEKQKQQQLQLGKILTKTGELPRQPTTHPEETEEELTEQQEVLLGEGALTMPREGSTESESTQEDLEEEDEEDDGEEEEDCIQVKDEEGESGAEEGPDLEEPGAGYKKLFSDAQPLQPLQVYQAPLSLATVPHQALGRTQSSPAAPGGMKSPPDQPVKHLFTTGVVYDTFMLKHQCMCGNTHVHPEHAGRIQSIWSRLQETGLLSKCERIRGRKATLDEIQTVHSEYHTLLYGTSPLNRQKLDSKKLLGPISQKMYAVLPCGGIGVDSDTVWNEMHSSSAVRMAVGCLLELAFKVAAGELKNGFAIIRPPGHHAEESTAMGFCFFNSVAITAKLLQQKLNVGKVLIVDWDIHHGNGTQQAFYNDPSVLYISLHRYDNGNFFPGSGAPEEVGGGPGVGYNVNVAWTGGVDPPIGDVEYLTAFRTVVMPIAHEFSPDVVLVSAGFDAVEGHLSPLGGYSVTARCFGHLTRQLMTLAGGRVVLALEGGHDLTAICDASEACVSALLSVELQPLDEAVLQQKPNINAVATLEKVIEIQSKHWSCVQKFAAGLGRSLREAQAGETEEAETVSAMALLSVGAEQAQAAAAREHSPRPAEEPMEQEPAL

Target: myc-tagged human Gγ12 (human) (UniProt Q9UBI6)
Experiment: co-IP; HEK-AT1R cells transiently transfected with myc-Gγ12, AT1R activated with AngII; association of myc-Gγ12 with endogenous proteins

| Substance | binding |
| --- | --- |
| myocyte enhancer factor 2A (MEF2A) (from UniProt Q02078 1-507) | binds |
| TATA-binding protein (TBP) (from UniProt P20226 1-339) | binds |
| G-protein β2 subunit (Gβ2) (from UniProt P62879 1-340) | binds |

Target: G-protein β2 subunit (Gβ2) (human (endogenous in HEK-293)) (UniProt P62879)
Experiment: co-IP; nuclear fractions (100 µg) of HEK-AT1R cells treated with AngII (1 µM for 30 min); pull-down with a Gβ2 antibody and ProtG (+) or only ProtG (−); immunoblot

| Substance | binding |
| --- | --- |
| STAT1 (from UniProt P42224 1-750) | binds |
| phosphorylated extracellular signal-regulated kinase 1 (pERK1 of pERK1/2) (from UniProt P27361 1-379) (enzyme) | no binding |
| signal transducer and activator of transcription 3 (STAT3) (from UniProt P40763 1-770) | binds |
| phosphorylated extracellular signal-regulated kinase 2 (pERK2 of pERK1/2) (from UniProt P28482 1-360) (enzyme) | no binding |
| p65 NFκB (from UniProt Q04206 1-551) | no binding |

Further lines, results first:

| binding | Substance |
| --- | --- |
| binds | myocyte enhancer factor 2A (MEF2A) (from UniProt Q02078 1-507) |
| no binding | GATA binding protein (GATA4) (from UniProt P43694 1-442) |
| binds | α-actinin-4 (from UniProt O43707 1-911) |
| binds | HDAC5 (from UniProt Q9UQL6 1-1122) (enzyme) |

Target: amino-terminal FLAG-tagged human Gβ2 (human) (UniProt P62879)
Experiment: co-IP; anti-M2 FLAG beads, FLAG-Gβ2/mutants and MEF2-expressing cells; immunoblot quantified (Kodak Imager), n = 3

| Substance | binding |
| --- | --- |
| MEF2A in 'FLAG-Gβ2/mutants and MEF2-expressing cells' (from UniProt Q02078 1-507) | binds |
